“And” between values parts separate entries of the source, which are not always exact repeats. Equal values may be shown once.
How the values were obtained:
[1] = target: T1, VEGF-A165 (human, UniProt P15692-4 27-191); assay: cell-based or functional assay
T1 sequence (looked up): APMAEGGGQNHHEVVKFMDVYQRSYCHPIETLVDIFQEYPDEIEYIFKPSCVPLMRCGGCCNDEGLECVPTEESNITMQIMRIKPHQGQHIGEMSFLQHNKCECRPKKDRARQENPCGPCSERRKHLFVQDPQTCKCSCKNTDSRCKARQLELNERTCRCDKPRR

[2] = target: T2, PlGF (UniProt P49763-2 19-149, limits assumed); assay: SPR, Biacore T200
T2 construct: also called PIGF
T2 sequence (looked up): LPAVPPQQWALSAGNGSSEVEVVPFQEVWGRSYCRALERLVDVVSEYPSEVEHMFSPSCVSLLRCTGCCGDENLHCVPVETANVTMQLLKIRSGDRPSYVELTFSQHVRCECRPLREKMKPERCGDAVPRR

[3] = target: T1, VEGF-A165; assay: SPR, Biacore T200
[4] = target: T3, VEGF-A121 (UniProt P15692-9 27-147); assay: SPR, Biacore T200
T3 sequence (looked up): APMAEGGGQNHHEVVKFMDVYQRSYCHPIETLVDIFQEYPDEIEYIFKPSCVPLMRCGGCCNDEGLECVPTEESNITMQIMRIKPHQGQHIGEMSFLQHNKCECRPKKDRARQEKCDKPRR

EC50 (ng/mL), inhibition of VEGF-A-induced HUVEC proliferation (CCK-8) [1]: 54.4 ng/mL and 57.5 ng/mL
Kd [2]: 1790 pM
koff [2]: 0.0018 s⁻¹
kon [2]: 1e+06 M⁻¹ s⁻¹
Kd [3]: 4.68 pM
koff [3]: 8.75e-05 s⁻¹
kon [3]: 1.87e+07 M⁻¹ s⁻¹
Kd [4]: 6.76 pM
koff [4]: 5.79e-05 s⁻¹
kon [4]: 8.57e+06 M⁻¹ s⁻¹
B1: IBI302 (Fc fusion)
chain: DTGRPFVEMYSEIPEIIHMTEGRELVIPCRVTSPNITVTLKKFPLDTLIPDGKKIIWDSRKGFIISNATYKEIGLLTCEATVNGHLYKTNYLTHRQTNTIIDVVLSPSHGIELSVGEKLVLNCTARTELNVGIDFNWEYPSSKHQHKKLVNRDLKTQSGSEMKKFLSTLTIDGVTRSDQGLYTCAASSGLMTKKNSTFVRVHEK[gap - human IgG1 Fc][gap - about 200 residues]
notes: also called bispecific fusion protein
